Laboratory results as given in the supplement of paper PMC10369915.
Some of the results follow. Cut-off read from the data, not from the text of the source: active = 3.2 or more and inactive = the rest. The signal is at background level for most entries.

B1: CDH17_Y489_K486E (peptide)
chain: SSEILYHIIKG
B2: CDH23_Y2949_D2954N (peptide)
chain: AIIGIYILRDN
B3: CDH23_Y2949_I2950N (peptide)
chain: AIIGIYNLRDD
B4: CDH4_Y205 (peptide)
chain: DIPIRYSITGV
B5: CDK13_Y351 (peptide)
chain: GGSSPYSRRLP
B6: CDK13_Y399 (peptide)
chain: RSRSPYSPVLR
B7: CDK13_Y716_G714R_YF (peptide)
chain: IGERTYGQVFK
B8: CDK2_Y19_YF (peptide)
chain: TFGVVYKARNK
B9: CDKL5_Y171_R175S (peptide)
chain: ANYTEYVATSW

biological target: SHP2 C-SH2 domain E139D; assay: enrichment score (SH2-bound / input frequency) (ratio); bacterial display of known human phosphotyrosine sites (pTyr-Var adds point mutants) read by sequencing; higher = stronger binding; tyrosines were phosphorylated by kinases first; conditions: peptide library: pTyr-Var
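Note: displayed peptides selected on beads carrying the immobilized SH2 domain, with library peptides lacking any tyrosine serving as negative controls.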

Binder | enrichment score
B1 | inactive: 1.44
B2 | inactive: 2.92
B3 | inactive: 2.05
B4 | inactive: 0.897
B5 | inactive: 0.247
B6 | inactive: 0.387
B7 | inactive: 0.973
B8 | inactive: 0.421
B9 | inactive: 0.968

biological target: SHP2 C-SH2 domain wild-type; assay: as above; conditions: peptide library: pTyr-Var

Binder | enrichment score
B1 | inactive: 1.26
B2 | active: 3.36
B3 | inactive: 2.12
B4 | inactive: 0.816
B5 | inactive: 0.275
B6 | inactive: 0.588
B7 | inactive: 0.913
B8 | inactive: 0.505
B9 | inactive: 0.902

biological target: SHP2 N-SH2 domain L43F; assay: as above; conditions: peptide library: pTyr-Var

Binder | enrichment score
B1 | inactive: 1.14
B2 | inactive: 2.55
B3 | inactive: 2.42
B4 | inactive: 0.792
B5 | inactive: 0.278
B6 | inactive: 0.425
B7 | inactive: 0.797
B8 | inactive: 0.378
B9 | inactive: 0.924

biological target: SHP2 N-SH2 domain T42A; assay: as above; conditions: peptide library: pTyr-Var

Binder | enrichment score
B1 | inactive: 1.11
B2 | inactive: 2.64
B3 | inactive: 1.98
B4 | inactive: 0.808
B5 | inactive: 0.281
B6 | inactive: 0.155
B7 | inactive: 0.71
B8 | inactive: 0.384
B9 | inactive: 1.11

biological target: SHP2 N-SH2 domain T52S; assay: as above; conditions: peptide library: pTyr-Var

Binder | enrichment score
B1 | inactive: 1.04
B2 | inactive: 2.33
B3 | inactive: 2.23
B4 | inactive: 0.865
B5 | inactive: 0.282
B6 | inactive: 0.289
B7 | inactive: 0.687
B8 | inactive: 0.311
B9 | inactive: 0.986

biological target: SHP2 N-SH2 domain wild-type; assay: as above; conditions: peptide library: pTyr-Var

Binder | enrichment score
B1 | inactive: 1.14
B2 | inactive: 2.87
B3 | inactive: 2.06
B4 | inactive: 0.873
B5 | inactive: 0.391
B6 | inactive: 0.325
B7 | inactive: 1.07
B8 | inactive: 0.363
B9 | inactive: 1
